According to paper PMC8765293, “Inhibitor-Resistant Mutants Give Important Insights into Candida albicans ABC Transporter Cdr1 Substrate Specificity and Help Elucidate Efflux Pump Inhibition” (Antimicrobial Agents and Chemotherapy, 2022):
Several values for one entry are separate records, joined by “and”; a condition that tells them apart may be missing. Equal values may be shown once. Read-outs that look alike come from different tables or passages of the source.

How the values were obtained:
[1] = molecular target: T1, Cdr1-A713P ATPase activity (Candida albicans, UniProt Q5ANA3, A713P); details: for IC50: read-out: IC50 for inhibition of Cdr1 ATPase activity, from Fig. 4; for Estimated IC50 for substrate inhibition of the ATPase activity: > = only partial inhibition, none = no reduction at highest concentration
[2] = molecular target: T2, Cdr1-G521R ATPase activity (Candida albicans, UniProt Q5ANA3, G521R); details: for IC50: read-out: IC50 for inhibition of Cdr1 ATPase activity, from Fig. 4
[3] = molecular target: T3, Cdr1-M639I ATPase activity (Candida albicans, UniProt Q5ANA3, M639I); details: for IC50: read-out: IC50 for inhibition of Cdr1 ATPase activity, from Fig. 4
[4] = molecular target: T2, Cdr1-G521R ATPase activity; assay: biochemical
[5] = molecular target: T4, Cdr1-M639I (FLC efflux of AD/CDR1-M639I cells) (Candida albicans, UniProt Q5ANA3, M639I); details: for lowest MICFLC in the presence of inhibitor: FLC 5 to 640 mg/L tested
[6] = molecular target: T5, Cdr1-G521R (FLC efflux of AD/CDR1-G521R cells) (Candida albicans, UniProt Q5ANA3, G521R); details: for lowest MICFLC in the presence of inhibitor: FLC 5 to 640 mg/L tested
[7] = molecular target: T6, Cdr1-A713P (FLC efflux of AD/CDR1-A713P cells) (Candida albicans, UniProt Q5ANA3, A713P); details: for lowest MICFLC in the presence of inhibitor: FLC 5 to 640 mg/L tested
[8] = molecular target: T3, Cdr1-M639I ATPase activity; assay: biochemical
[9] = molecular target: T6, Cdr1-A713P (FLC efflux of AD/CDR1-A713P cells); assay: cell-based
[10] = molecular target: T5, Cdr1-G521R (FLC efflux of AD/CDR1-G521R cells); assay: cell-based
[11] = molecular target: T4, Cdr1-M639I (FLC efflux of AD/CDR1-M639I cells); assay: cell-based
[12] = molecular target: T1, Cdr1-A713P ATPase activity; assay: biochemical; details: for IC50: Estimated IC50 for substrate inhibition of the ATPase activity, A713P, > = only partial inhibition, none = no reduction at highest concentration
[13] = read-out: Ki (Cdr1 ATPase activity), Dixon plot
[14] = read-out: IC50 for inhibition of FLC efflux (MICFLC), live whole cells, from Fig. 3B

T6 sequence (Q5ANA3 whole entry A713P): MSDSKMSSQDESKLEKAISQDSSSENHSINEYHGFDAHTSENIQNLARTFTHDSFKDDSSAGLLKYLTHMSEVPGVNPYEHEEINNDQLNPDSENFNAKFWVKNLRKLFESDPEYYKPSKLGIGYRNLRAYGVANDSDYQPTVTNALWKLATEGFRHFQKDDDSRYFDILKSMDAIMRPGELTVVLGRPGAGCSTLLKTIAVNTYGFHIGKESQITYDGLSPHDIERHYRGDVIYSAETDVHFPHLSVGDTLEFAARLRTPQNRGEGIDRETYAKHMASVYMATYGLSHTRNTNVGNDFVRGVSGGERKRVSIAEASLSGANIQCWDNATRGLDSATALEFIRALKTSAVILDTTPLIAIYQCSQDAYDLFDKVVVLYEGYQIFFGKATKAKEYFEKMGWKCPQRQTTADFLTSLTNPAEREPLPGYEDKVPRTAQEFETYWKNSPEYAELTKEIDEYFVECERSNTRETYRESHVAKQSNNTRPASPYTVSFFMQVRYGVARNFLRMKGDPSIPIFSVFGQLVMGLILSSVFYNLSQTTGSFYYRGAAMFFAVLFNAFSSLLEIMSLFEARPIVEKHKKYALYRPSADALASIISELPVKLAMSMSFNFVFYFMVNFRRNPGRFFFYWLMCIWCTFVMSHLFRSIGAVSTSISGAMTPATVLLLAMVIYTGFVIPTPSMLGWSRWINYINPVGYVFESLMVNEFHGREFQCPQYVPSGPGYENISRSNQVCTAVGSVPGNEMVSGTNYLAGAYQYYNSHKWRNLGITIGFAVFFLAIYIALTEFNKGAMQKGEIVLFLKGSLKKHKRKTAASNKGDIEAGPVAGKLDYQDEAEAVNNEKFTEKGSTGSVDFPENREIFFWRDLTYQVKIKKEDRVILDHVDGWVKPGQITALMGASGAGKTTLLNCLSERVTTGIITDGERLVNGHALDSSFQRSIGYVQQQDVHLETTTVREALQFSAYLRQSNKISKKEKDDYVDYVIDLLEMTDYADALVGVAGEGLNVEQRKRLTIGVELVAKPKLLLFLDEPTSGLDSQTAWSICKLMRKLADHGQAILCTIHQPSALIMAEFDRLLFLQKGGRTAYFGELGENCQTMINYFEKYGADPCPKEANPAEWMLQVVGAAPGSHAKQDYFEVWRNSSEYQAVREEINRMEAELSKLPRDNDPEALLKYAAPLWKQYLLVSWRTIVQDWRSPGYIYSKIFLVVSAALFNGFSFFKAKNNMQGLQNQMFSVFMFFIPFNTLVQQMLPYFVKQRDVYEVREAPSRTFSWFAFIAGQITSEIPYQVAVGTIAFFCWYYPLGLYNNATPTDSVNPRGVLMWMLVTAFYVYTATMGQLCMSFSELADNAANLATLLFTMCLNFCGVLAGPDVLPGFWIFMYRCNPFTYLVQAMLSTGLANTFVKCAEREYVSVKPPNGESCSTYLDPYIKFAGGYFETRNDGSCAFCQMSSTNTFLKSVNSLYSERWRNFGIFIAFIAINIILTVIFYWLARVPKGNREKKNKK
T1 sequence (Q5ANA3 whole entry A713P): as above
T3 sequence (Q5ANA3 whole entry M639I): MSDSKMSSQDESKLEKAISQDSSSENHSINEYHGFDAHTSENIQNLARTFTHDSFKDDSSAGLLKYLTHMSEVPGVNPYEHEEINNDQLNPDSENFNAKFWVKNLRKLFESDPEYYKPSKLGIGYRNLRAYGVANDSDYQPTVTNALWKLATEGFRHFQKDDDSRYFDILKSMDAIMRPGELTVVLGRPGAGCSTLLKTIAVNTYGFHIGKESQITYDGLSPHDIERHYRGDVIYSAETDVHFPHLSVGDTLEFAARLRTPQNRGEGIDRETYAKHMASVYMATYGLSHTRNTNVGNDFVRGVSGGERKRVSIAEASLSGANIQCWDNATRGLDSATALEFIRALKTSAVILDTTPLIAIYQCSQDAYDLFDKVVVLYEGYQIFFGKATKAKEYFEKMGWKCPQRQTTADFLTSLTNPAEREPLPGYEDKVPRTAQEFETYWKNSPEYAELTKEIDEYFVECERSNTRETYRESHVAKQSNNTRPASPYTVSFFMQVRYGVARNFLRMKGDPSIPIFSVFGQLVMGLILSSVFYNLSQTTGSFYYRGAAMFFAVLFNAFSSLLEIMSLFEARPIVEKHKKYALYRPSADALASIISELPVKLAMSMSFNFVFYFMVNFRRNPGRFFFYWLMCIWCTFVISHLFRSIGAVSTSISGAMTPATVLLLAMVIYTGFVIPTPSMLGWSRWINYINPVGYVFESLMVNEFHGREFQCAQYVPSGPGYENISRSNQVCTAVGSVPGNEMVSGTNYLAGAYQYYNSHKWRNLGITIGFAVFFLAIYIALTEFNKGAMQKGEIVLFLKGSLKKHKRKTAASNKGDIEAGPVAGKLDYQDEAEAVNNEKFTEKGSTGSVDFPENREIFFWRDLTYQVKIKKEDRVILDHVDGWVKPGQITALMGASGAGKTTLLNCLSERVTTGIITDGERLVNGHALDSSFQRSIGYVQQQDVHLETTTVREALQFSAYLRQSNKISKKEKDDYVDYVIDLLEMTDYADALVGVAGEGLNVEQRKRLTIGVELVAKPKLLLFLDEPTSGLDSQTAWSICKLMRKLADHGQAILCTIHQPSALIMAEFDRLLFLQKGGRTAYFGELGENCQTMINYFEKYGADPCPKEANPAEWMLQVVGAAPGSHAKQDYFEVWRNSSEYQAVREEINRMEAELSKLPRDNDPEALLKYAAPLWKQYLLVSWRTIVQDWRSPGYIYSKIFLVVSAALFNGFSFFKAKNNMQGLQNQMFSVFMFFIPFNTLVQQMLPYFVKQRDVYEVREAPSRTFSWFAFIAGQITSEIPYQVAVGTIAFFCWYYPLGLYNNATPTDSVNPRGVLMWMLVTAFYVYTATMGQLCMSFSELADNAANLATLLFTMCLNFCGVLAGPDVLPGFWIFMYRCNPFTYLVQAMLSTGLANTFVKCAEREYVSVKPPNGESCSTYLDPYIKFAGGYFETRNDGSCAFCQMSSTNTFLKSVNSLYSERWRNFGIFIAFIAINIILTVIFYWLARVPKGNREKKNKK

## [O]=[V]([O-])([O-])[O-] [Vanadate, vanadate]
[1]
  type of inhibition of ATPase activity (Lineweaver-Burk): uncompetitive inhibitor
  IC50: 0.26 µM
[1]; [I] 0.2 μM
  Vmax of ATPase activity in the presence of inhibitor: 65 nmol/min/mg
[1]; [I] 0.5 μM
  Vmax of ATPase activity in the presence of inhibitor: 42 nmol/min/mg
[1]; [13]
  Ki: 0.07 ± 0.01 µM
[2]; [I] 10 μM
  Vmax of ATPase activity in the presence of inhibitor: 333 nmol/min/mg
[2]; [I] 20 μM
  Vmax of ATPase activity in the presence of inhibitor: 270 nmol/min/mg
[2]
  IC50: > 20 µM
[2]; [13]
  Ki: 20.8 ± 0.76 µM
[3]; [I] 0.5 μM
  Vmax of ATPase activity in the presence of inhibitor: 149 nmol/min/mg
[3]; [I] 2 μM
  Vmax of ATPase activity in the presence of inhibitor: 86 nmol/min/mg
[3]
  IC50: 1.8 µM
[3]; [13]
  Ki: 1.93 ± 0.13 µM

## CCC(C)n1ncn(-c2ccc(N3CCN(c4ccc(OCC5COC(Cn6cncn6)(c6ccc(Cl)cc6Cl)O5)cc4)CC3)cc2)c1=O (stereo not shown) [ITC, itraconazole]
[1]
  Estimated IC50 for substrate inhibition of the ATPase activity: none
[4]
  IC50: > 32 µM

## milbemycin α25
[1]
  IC50: > 30 µM
[2]
  IC50: 28 µM
[5]
  lowest inhibitor concentration necessary to achieve the lowest MICFLC: 2.5 µM
  times more resistant than wt Cdr1 (IC50 of FLC efflux inhibition): ~5 fold
  lowest MICFLC in the presence of inhibitor: 5 mg/L
[5]; [14]
  IC50: 0.4 µM
[3]
  IC50: 30 µM
[6]
  lowest MICFLC in the presence of inhibitor: 20 (20) mg/L
[6]; [14]
  IC50: 8 µM
[7]
  lowest inhibitor concentration necessary to achieve the lowest MICFLC: 2.5 µM
  times more resistant than wt Cdr1 (IC50 of FLC efflux inhibition): 5 fold
  lowest MICFLC in the presence of inhibitor: 5 mg/L
[7]; [14]
  IC50: 0.4 µM

## C=CC[C@@H]1/C=C(\C)C[C@H](C)C[C@H](OC)[C@H]2O[C@@](O)(C(=O)C(=O)N3CCCC[C@H]3C(=O)O[C@H](/C(C)=C/[C@@H]3CC[C@@H](O)[C@H](OC)C3)[C@H](C)[C@@H](O)CC1=O)[C@H](C)C[C@@H]2OC [FK506]
[1]
  type of inhibition of ATPase activity (Lineweaver-Burk): mixed inhibition
[1]; [I] 1 μM
  Vmax of ATPase activity in the presence of inhibitor: 88 nmol/min/mg
[1]; [I] 10 μM
  Vmax of ATPase activity in the presence of inhibitor: 69 nmol/min/mg
[2]; [I] 1 μM
  Vmax of ATPase activity in the presence of inhibitor: 500 nmol/min/mg
[2]; [I] 10 μM
  Vmax of ATPase activity in the presence of inhibitor: 256 nmol/min/mg
[8]
  IC50: 0.8 µM
  Ki: 0.56 ± 0.07 µM
[9]
  IC50: 40 µM
[10]
  IC50: 40 µM
[5]
  lowest inhibitor concentration necessary to achieve the lowest MICFLC: 40 µM
  lowest MICFLC in the presence of inhibitor: 5 mg/L
[11]
  IC50: 2.5 µM
[4]
  IC50: 14.5 µM
  Ki: 12.8 ± 4.53 µM
[12]
  Ki: 11.9 ± 2.8 µM
[3]; [I] 10 μM
  Vmax of ATPase activity in the presence of inhibitor: 123 nmol/min/mg
[6]
  lowest inhibitor concentration necessary to achieve the lowest MICFLC: 80 µM
  lowest MICFLC in the presence of inhibitor: 40 mg/L
[7]
  lowest inhibitor concentration necessary to achieve the lowest MICFLC: 80 (80) μM
  times more resistant than wt Cdr1 (IC50 of FLC efflux inhibition): 16 fold
  lowest MICFLC in the presence of inhibitor: 80 (80) mg/L

## OC(Cn1cncn1)(Cn1cncn1)c1ccc(F)cc1F [FLC, fluconazole]
[5]; no inhibitor
  MICFLC: 640 mg/L
[6]; no inhibitor
  MICFLC: 160 mg/L
[7]; no inhibitor
  MICFLC: 320 mg/L

## CC(=O)N1CCN(c2ccc(OCC3COC(Cn4ccnc4)(c4ccc(Cl)cc4Cl)O3)cc2)CC1 (stereo not shown) [KTC, ketoconazole]
[4]
  IC50: > 1000 µM
[12]
  IC50: 100 µM and ~100 µM

## CC/N=c1\cc2oc3cc(NCC)c(C)cc3c(-c3ccccc3C(=O)OCC)c-2cc1C [R6G, rhodamine 6G]
[4]
  IC50: 32 µM
[12]
  IC50: > 64 µM

## CC[C@@]1([C@@H]2O[C@@H]([C@H]3O[C@@](O)(CO)[C@H](C)C[C@@H]3C)C[C@@H]2C)CC[C@H]([C@]2(C)CC[C@]3(C[C@H](O)[C@@H](C)[C@@H]([C@@H](C)[C@@H](OC)[C@H](C)C(=O)O)O3)O2)O1 [MON, monensin]
[1]
  Estimated IC50 for substrate inhibition of the ATPase activity: none
[2]; > = only partial inhibition, none = no reduction at highest concentration
  Estimated IC50 for substrate inhibition of the ATPase activity: none
